Experimental data reported in the supplement of paper PMC12217912.
This is one part of the list. The full chains were built here from the parent and the listed change. Inactive controls read about 0.05.

B1: TEV protease; numbered along this chain (parent)
chain: MGESLFKGPRDYNPISSSICHLTNESDGHTTSLYGIGFGPFIITNKHLFRRNNGTLVVQSLHGVFKVKDTTTLQQHLVDGRDMIIIRMPKDFPPFPQKLKFREPQREERICLVTTNFQTKSMSSMVSDTSCTFPSGDGIFWKHWIQTKDGQCGSPLVSTRDGFIVGIHSASNFTNTNNYFTSVPKNFMELLTNQEAQQWVSGWRLNADSVLWGGHKVFMVKPEEPFQPVKEATQL

Variants of: B1
Experiment: raw area under fraction-flipped curve 0-4 h after induction (AUC4h, not background-subtracted), DNA-recorder readout of cleavage of the substrate (dimensionless); higher = more cleavage of the substrate by the protease variant
Conditions: temperature: 34 °C; time window: 0-4 h after rhamnose induction
Method: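 In vivo DNA recorder in E. coli TOP10(DE3) ΔrhaA at 34 °C. Each TEVp single-site mutant (parent TEVp 0) is paired with a single-site variant of the 7-mer TEVs (canonical ENLYFQ|S). The substrate sits between flexible linkers in a Bxb1-sfGFP-TEVs-SsrA fusion, so cleavage stabilises Bxb1 and speeds flipping of a recombination array, read by NGS. The value is the raw area under the fraction-flipped curve over 0-4 h after rhamnose induction (AUC4h), with ≥20 reads per time point. It is not background-subtracted; inactive controls average about 0.047.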
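Note: Bxb1 expression induced with 0.2% (w/v) L-rhamnose at OD600 near 0.5, cultures sampled hourly, flipped fraction per protease–substrate barcode pair counted by paired-end Illumina sequencing.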

Row | Variant | area with substrate ENAYFQS | area with substrate ENCYFQS | area with substrate ENDYFQS | area with substrate ENEYFQS | area with substrate ENFYFQS | area with substrate ENGYFQS | area with substrate ENHYFQS | area with substrate ENKYFQS | area with substrate ENMYFQS | area with substrate ENNYFQS | area with substrate ENPYFQS | area with substrate ENQYFQS | area with substrate ENRYFQS | area with substrate ENSYFQS | area with substrate ENWYFQS | area with substrate ENYYFQS | area with substrate ENIYFQS | area with substrate ENVYFQS | area with substrate ENTYFQS
1 | G2P | 0.0644 | 0.0741 | 0.056 | 0.0591 | 0.052 | 0.0741 | 0.0597 | 0.0623 | 0.0918 | 0.0784 | 0.0508 | 0.0583 | 0.0357 | 0.0569 | 0.0571 | 0.0528 | – | – | –
2 | G2V | 0.0617 | 0.0658 | – | 0.0621 | 0.0503 | 0.057 | 0.0641 | – | – | – | – | 0.0576 | 0.053 | 0.0547 | 0.0461 | 0.0551 | 0.146 | 0.0959 | –
3 | E3K | 0.0531 | – | 0.0464 | 0.061 | 0.0657 | 0.0658 | – | – | – | – | – | 0.0487 | – | 0.0593 | – | 0.0579 | 0.215 | 0.0827 | –
4 | L5G | 0.0525 | – | 0.0555 | – | 0.0716 | 0.0488 | 0.0603 | 0.0562 | 0.0839 | 0.0633 | 0.0569 | – | 0.0587 | 0.109 | – | – | – | 0.0613 | 0.0663
5 | L5I | 0.0666 | – | – | – | – | – | 0.0443 | – | – | – | 0.0512 | 0.0431 | 0.0541 | – | – | – | 0.115 | 0.0943 | 0.0439
6 | L5S | 0.0634 | 0.071 | – | 0.0575 | 0.0553 | 0.0684 | 0.0557 | – | – | 0.0621 | – | 0.0575 | 0.0393 | 0.0265 | – | – | – | 0.0844 | 0.0641
7 | F6L | 0.0686 | – | – | 0.0729 | 0.0489 | – | – | 0.0619 | – | – | – | – | 0.0767 | – | – | – | – | 0.0683 | –
8 | K7C | 0.0802 | 0.0623 | 0.06 | 0.07 | 0.047 | 0.0538 | – | 0.0387 | – | – | 0.079 | 0.0985 | – | – | 0.0496 | – | 0.0603 | 0.0893 | –
9 | K7M | 0.0474 | – | 0.0626 | 0.0595 | – | 0.0619 | 0.0682 | 0.0555 | 0.0719 | 0.0662 | – | 0.0789 | – | 0.0647 | – | – | – | – | 0.0537
10 | K7T | 0.0556 | – | 0.0574 | 0.0795 | – | – | – | – | – | 0.0523 | – | 0.06 | – | – | – | 0.0588 | 0.084 | – | –
11 | P9S | 0.0574 | – | – | – | 0.0687 | 0.0706 | 0.0511 | 0.0648 | – | 0.0952 | 0.0627 | 0.0677 | – | – | – | – | 0.0911 | 0.0481 | 0.0565
12 | R10A | 0.0494 | 0.0788 | – | – | 0.0761 | – | – | – | – | 0.0561 | 0.0595 | 0.0632 | 0.0564 | 0.0522 | – | – | 0.124 | 0.0709 | 0.0583
13 | Y12T | 0.0614 | 0.0703 | 0.0552 | 0.0487 | 0.0525 | – | 0.0673 | 0.0671 | – | 0.0246 | 0.076 | 0.0655 | 0.0613 | 0.0649 | – | – | – | – | –
14 | P14F | 0.0555 | 0.0554 | 0.06 | 0.0571 | – | 0.0712 | 0.0608 | – | – | 0.0551 | 0.0598 | 0.0599 | 0.0553 | 0.0635 | 0.0035 | – | – | 0.0651 | 0.0668
15 | I19D | 0.0441 | 0.0362 | 0.0563 | 0.0406 | 0.0554 | 0.0367 | 0.0417 | 0.0485 | 0.0632 | 0.0616 | – | 0.0412 | 0.0445 | 0.0446 | – | – | – | 0.0311 | 0.0513
16 | N24I | 0.0641 | – | 0.0703 | 0.0621 | 0.0672 | – | 0.061 | – | 0.0562 | 0.0646 | – | 0.055 | 0.0665 | – | – | 0.0548 | 0.0717 | 0.0612 | 0.0687

Row | Variant | area with substrate ENAYFQS | area with substrate ENCYFQS | area with substrate ENDYFQS | area with substrate ENEYFQS | area with substrate ENFYFQS | area with substrate ENGYFQS | area with substrate ENHYFQS | area with substrate ENKYFQS | area with substrate ENMYFQS | area with substrate ENNYFQS | area with substrate ENPYFQS | area with substrate ENQYFQS | area with substrate ENRYFQS | area with substrate ENSYFQS | area with substrate ENWYFQS | area with substrate ENYYFQS | area with substrate ENIYFQS | area with substrate ENVYFQS | area with substrate ENTYFQS
17 | S26I | 0.0425 | 0.0539 | 0.0319 | 0.0691 | 0.0581 | 0.0524 | 0.0587 | – | – | 0.0798 | – | 0.0559 | 0.0531 | 0.0657 | 0.0445 | – | – | 0.0631 | 0.0735
18 | D27F | 0.0663 | 0.0841 | 0.0503 | 0.0632 | 0.0687 | 0.052 | – | 0.0751 | – | – | – | – | – | 0.0713 | – | – | – | 0.046 | 0.0429
19 | D27I | 0.0572 | 0.0569 | 0.0657 | – | – | – | 0.0625 | – | – | 0.0735 | 0.0469 | 0.0606 | – | 0.0596 | – | 0.0446 | 0.111 | 0.0655 | 0.0636
20 | T30H | 0.0788 | 0.0205 | 0.0631 | 0.0587 | 0.0786 | 0.0472 | 0.0558 | 0.0522 | 0.0664 | 0.0523 | 0.0628 | 0.0641 | 0.0785 | 0.0681 | – | 0.0542 | 0.077 | 0.0733 | –
21 | T30M | 0.0556 | 0.0474 | 0.0572 | 0.0612 | – | – | 0.0726 | 0.0443 | – | 0.0598 | 0.0628 | 0.0519 | – | 0.0702 | 0.0467 | – | – | 0.0587 | –
22 | T31M | 0.0481 | 0.0663 | 0.0625 | 0.0712 | 0.0684 | 0.0612 | 0.0598 | 0.0503 | – | 0.062 | 0.063 | 0.0427 | – | 0.0587 | – | 0.0591 | – | 0.0806 | 0.0684
23 | T31Y | 0.0602 | 0.0734 | 0.0587 | 0.0687 | 0.0546 | 0.0623 | 0.0515 | 0.0592 | 0.0813 | – | – | – | – | – | – | – | – | – | 0.0564
24 | L33A | 0.0665 | – | 0.0571 | 0.0602 | – | 0.0698 | – | 0.0671 | – | – | – | – | 0.0276 | 0.063 | 0.122 | – | 0.0937 | 0.0677 | –
25 | Y34D | 0.0464 | 0.0629 | 0.0685 | – | – | 0.0887 | 0.0545 | – | – | 0.0577 | 0.0668 | 0.0539 | – | 0.0512 | 0.0719 | – | – | – | –
26 | Y34M | 0.0684 | – | 0.0503 | 0.0587 | 0.0626 | – | 0.062 | – | – | 0.0789 | 0.0593 | 0.0591 | 0.0566 | 0.0661 | – | 0.0611 | 0.071 | 0.0535 | 0.0635
27 | Y34P | 0.0407 | 0.0505 | 0.0608 | – | 0.0552 | – | 0.0534 | 0.0632 | – | 0.0356 | – | 0.0508 | 0.0557 | 0.0584 | – | – | – | – | –
28 | Y34T | 0.0683 | – | 0.048 | 0.0617 | 0.0507 | – | 0.0602 | – | – | – | – | 0.0621 | 0.0831 | – | – | 0.059 | – | – | –
29 | G35H | 0.0331 | – | – | 0.0445 | 0.047 | – | – | – | – | – | – | – | – | – | – | – | – | – | 0.0375
30 | G35Y | 0.0447 | – | – | – | – | – | – | – | – | – | – | 0.0598 | – | 0.0377 | – | – | 0.0359 | 0.0578 | –
31 | I36G | 0.045 | 0.0496 | 0.0517 | 0.046 | 0 | – | – | – | – | 0.0412 | 0.0333 | – | – | 0.0316 | – | 0.0357 | – | 0.0368 | –
